The campaign covered roughly 45,000 compounds. About 65 (0.1%) were called active. The call rests on the fitted dose curve; in most records, active means well fitted activation curve with a large enough effect; inconclusive means small, poorly fitted or top-dose-only effect; inactive means no such curve, though single readings can be large or run the other way. The list shows a part of the results. Square brackets hold non-standard residues; d marks the D form. Peptide text beside a SMILES is read from it. pGlu = O=C1CC[C@@H](C(=O)O)N1
What follows are compounds tested against Galactocerebrosidase (Homo sapiens) (UniProt P54803) (assay: A Novel Cell-Based Assay to Identify Small Molecules for B -Galactocerebrosidase). Conditions: 145M-Twi-hGALC-G270D cells, HMU-beta-Gal fluorescence, 48 h; series mostly up to 57.5 µM; activation: at the top concentration.
Procedure, shortened: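 qHTS, 1536-well; 145M-Twi-hGALC-G270D cells (WT line also made) in DMEM/F12 + 10% FBS; compound incubation on live cells; HMU-β-gal 0.1 mM final, pH 5.2, NaTC; carbonate stop; fluorescence increase = enhanced residual activity.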
Further: 0% is about no effect; nearly all actives have a fitted effect of over 65% in size.

UniProt P54803, sequence (P54803 whole entry, looked up): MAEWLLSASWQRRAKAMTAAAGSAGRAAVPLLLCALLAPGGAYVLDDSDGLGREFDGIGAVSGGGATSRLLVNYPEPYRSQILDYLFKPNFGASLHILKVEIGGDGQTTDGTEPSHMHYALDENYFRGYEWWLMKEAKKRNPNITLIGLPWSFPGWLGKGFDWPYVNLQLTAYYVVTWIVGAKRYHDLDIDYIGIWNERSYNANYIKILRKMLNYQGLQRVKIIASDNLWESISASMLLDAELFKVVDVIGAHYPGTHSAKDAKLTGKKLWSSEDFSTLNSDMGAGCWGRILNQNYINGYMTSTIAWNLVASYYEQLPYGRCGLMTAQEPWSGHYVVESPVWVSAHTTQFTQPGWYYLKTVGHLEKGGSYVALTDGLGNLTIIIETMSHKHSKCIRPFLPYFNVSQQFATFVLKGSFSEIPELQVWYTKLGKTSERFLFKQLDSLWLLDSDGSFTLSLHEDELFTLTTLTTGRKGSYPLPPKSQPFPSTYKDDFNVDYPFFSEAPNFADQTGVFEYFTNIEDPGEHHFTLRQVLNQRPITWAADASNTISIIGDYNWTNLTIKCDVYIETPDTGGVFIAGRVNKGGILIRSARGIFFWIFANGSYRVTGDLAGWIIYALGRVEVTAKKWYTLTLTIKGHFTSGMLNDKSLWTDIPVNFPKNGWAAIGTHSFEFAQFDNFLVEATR

Compound	activation
Cc1c(C)n(Cc2ccccc2)c2ccc(C(=O)NCc3ccccc3F)cc12	inactive: -5.64%
COc1ccccc1NC(=O)NCCCN1CCN(c2ccc(F)cc2)CC1	inactive: -2.77%
O=C(c1cnn(-c2cccc(F)c2)c1-n1cccc1)N1CCN(c2ccccc2F)CC1	inactive: -14.4%
Cc1ccc(-c2nc3ccccc3[nH]2)cc1NC(=O)COc1ccccc1[N+](=O)[O-]	inactive: -19.5%
CCS(=O)(=O)c1ccc(OC)c(C(=O)OC)c1	inactive: -9.83%
COc1ccc(C(=O)Nc2cccc(-c3cn4ccsc4n3)c2)cc1OC	inactive: -20.2%
CCCN1CCN(CCCNC(=O)c2ccc3c(c2)sc2nc(-c4ccc(OC)cc4)cn23)CC1	inactive: -9.61%
CCOC(=O)C1CCN(C(=O)Cn2nc(C)n3c(cc4sccc43)c2=O)CC1	inactive: -13.9%
Cc1ccccc1Cn1c(CN2CCC(C(=O)NCc3cccnc3)CC2)cc2ccccc21	inactive: -10.4%
Cn1c(SCC(=O)N2CCOCC2)ncc(C(=O)Nc2ccccc2)c1=O	inactive: -7.46%
Cc1ccc2c(CNCC(C)c3ccccc3)c(C(=O)O)n(Cc3ccccc3C)c2c1 (stereo unspecified)	inactive: 1.37%
CC1=C(C(=O)NCc2ccccc2Cl)C2(CCCCCC2)OC1=O	inactive: -2.76%
Cc1ccc(CNC(=O)CCNS(=O)(=O)c2ccc3c(c2)oc(=O)n3C)cc1	inactive: -9.94%
Cc1oc(-c2cccc(Cl)c2)nc1CN1CCC(C(=O)NC(C)C)CC1	inactive: 2.23%
Cc1cc(C)c(S(=O)(=O)Nc2ccc3oc(C)c(C(=O)OC(C)C)c3c2)cc1C	inactive: -26.1%
O=C(COc1ccc(Br)cc1Br)Nc1ccc(S(=O)(=O)Nc2ncccn2)cc1	inactive: -12%
Cc1ccc(Cl)cc1NC(=O)Cn1c(=O)cc(C)c2c(C)nn(C)c21	inactive: -16%
Cc1ccc(NC(=O)CC2Oc3ccc(C)cc3NC2=O)c(C)c1 (stereo unspecified)	inactive: -17.6%
COc1cccc(Nc2nnc(-c3cc4ccc(O)cc4oc3=O)s2)c1	inactive: -17%
CCOc1ccc(NC(=O)Cn2c(=O)n(CCc3ccccc3)c(=O)c3c4c(sc32)CCCC4)cc1	inactive: -3.36%
COc1cccc(C2CC(=O)Nc3c2c(=O)n(C)c2nc4ccccc4n32)c1OC (stereo unspecified)	inactive: -3.22%
O=C(CCn1c(=O)c2sccc2n(Cc2ccc(F)cc2)c1=O)NCc1ccc2c(c1)OCO2	inactive: -1.37%
Cc1ccc(-n2nc3cc(C)c(NC(=O)c4ccc(-c5ccccc5)o4)cc3n2)cc1	inactive: -6.82%
CCOC(=O)C1=C(CN2CCN(c3ccc(Cl)cc3)CC2)NC(=O)NC1c1ccc(OC)cc1 (stereo unspecified)	inactive: -19.6%

Compound	activation
O=C(Cn1ncc2c3ccccc3n(Cc3ccccc3)c2c1=O)NCc1cccs1	inactive: -18%
Cc1ccc(Cl)cc1N1CCN(C(=O)Cn2cnc3onc(-c4ccc(F)cc4)c3c2=O)CC1	inactive: -26.3%
CCc1nc2ccc(C(=O)N3CCN(c4ccccc4F)CC3)cc2nc1CC	inactive: -3.65%
COc1cccc2sc(NC(=O)c3ccc4c(c3)OCCO4)nc12	inactive: -5.52%
CC(=O)c1ccc(NC(=O)Cn2nc(C(F)(F)F)c3c2CCC3)cc1	inactive: -7.27%
Cc1ccc(CSc2c(C)cnc3c2c(=O)n(C)c(=O)n3C)cc1	inactive: -9.86%
CCCCNC(=O)CCC1N=C2c3ccccc3N=C(SCC(=O)NCCc3ccc(OC)c(OC)c3)N2C1=O (stereo unspecified)	inactive: -25.6%
CCN(CC)CCNC(=O)CCn1c(=O)c2cccn2c2cccnc21	inactive: 3.62%
Cc1ccc2nc(-c3ccc(NC(=O)Cc4ccccc4)cc3)sc2c1	inactive: -12.2%
CN1c2ccc(Cl)cc2-c2nc(SCC(=O)NCc3ccc(F)cc3)ncc2S1(=O)=O	inactive: -19.9%
O=C1CCCc2cc(S(=O)(=O)NCC3CCC(C(=O)Nc4ccc(Cl)cc4)CC3)ccc2N1 (stereo unspecified)	inactive: -13.9%
Cc1cc(Nc2ccc(Br)cc2)n2nc(-c3ccccc3C)nc2n1	inactive: -0.607%
CC1=C(C(=O)Nc2ccc(C)cc2C)C(c2ccccc2)n2nc(SCC(=O)c3ccc(C)cc3)nc2N1 (stereo unspecified)	inactive: 2%
O=C(CSc1nc2ccsc2c(=O)n1Cc1ccc(F)cc1)NCc1ccc(Cl)cc1	inactive: -20.5%
COc1ccc(NC(=O)Cn2c(=O)oc3ccccc32)cc1	inactive: -7.27%
CCc1ccccc1NC(=O)CCNS(=O)(=O)c1ccc2c(c1)CCCC(=O)N2	inactive: -21.1%
CCCCCCOc1ccc(/C=C/C(=O)Nc2sc3c(c2C(=O)OC)CCC3)cc1OC	inactive: -37.1%
O=C(NCC(c1ccc2c(c1)OCO2)N1CCOCC1)c1ccccc1 (stereo unspecified)	inactive: -29.4%
Cc1c(O)nc(SCC(=O)Nc2ccc(Cl)cc2Cl)n(-c2ccc(F)cc2)c1=O	inactive: -1.71%
CCC(C)NC(=O)c1cc2cc(S(=O)(=O)N3CCCCC3)ccc2n1C (stereo unspecified)	inactive: -3.96%
CCN1CCN(c2ncc3c(n2)CCN(Cc2cc(Br)cs2)C3)CC1	inactive: -7.05%
CCC(C)c1ccc(OCC(=O)Nc2cccc3ccc(C)nc23)cc1 (stereo unspecified)	inactive: -13.2%
Cc1nn(C)c2c1c(C(F)(F)F)cc(=O)n2CC(=O)NCc1ccc(OC(C)C)cc1	inactive: 2.74%
Cc1ccc(CNS(=O)(=O)c2ccc(N3CCCCS3(=O)=O)cc2)cc1	inactive: -15.6%

Compound	activation
O=C(CNC(=O)c1ccc(Cl)cc1)OCc1cc(=O)n2nc(C3CC3)sc2n1	inactive: -4.88%
COc1cc(Cn2c(=O)oc3ccc(C)cc32)ccc1OCCC(C)C	inactive: -52.7%
CC(C)(C)c1ccc(S(=O)(=O)N2CCC(Oc3ccc(-n4cnnn4)cc3)CC2)cc1	inactive: 4.73%
C/C(=N/NC(=O)c1ccncc1)C(=O)O	inactive: -16.4%
Cc1cn(C)c(CC(=O)NCc2cccc(Cl)c2)c1C(=O)O	inactive: -7.33%
CC(C)(C)c1ccc(CSC2=Nc3ccccc3C3=NC(CC(=O)NCc4cccs4)C(=O)N23)cc1 (stereo unspecified)	inactive: -19.2%
Cc1ccc(Cn2c(C(=O)O)c(CNCc3ccc(C)o3)c3ccc(C)cc32)cc1	inactive: -4.54%
Cc1cccc(NC(=O)CN2C(=O)C3(SCC(=O)N3c3ccccc3)c3ccccc32)c1 (stereo unspecified)	inactive: -14.8%
NC(=O)c1cnccn1	inactive: -16.2%
Cc1ccc(S(=O)(=O)N2CCN(Cc3ccccc3Cl)CC2)cc1	inactive: -12.2%
Cc1ccc(Cn2c(CCNC(=O)c3cccc(C)c3)nc3ccccc32)cc1	inactive: -16.1%
CCOC(=O)c1c(NC(=O)c2cc(=O)c3cc(C)ccc3o2)sc2c1CCCC2	inactive: -21.3%
COc1ccc(Cl)cc1NC(=O)CSC1=Nc2ccccc2C2=NC(CCC(=O)NCc3ccco3)C(=O)N12 (stereo unspecified)	inactive: -17.8%
CCN(CC)c1ccc(NC(=O)CN2CCN(CC(=O)Nc3ccc(Cl)cc3)CC2)cc1	inactive: -11.8%
Cc1ccc2oc(C(=O)Nc3sc4c(c3C(=O)NCC3CCCO3)CCC4)cc(=O)c2c1 (stereo unspecified)	inactive: -5.71%
COc1ccc(NC(=O)c2cccc(N3CCCS3(=O)=O)c2)c(OC)c1	inactive: 4.77%
CC(C)Cn1cc(NC(=O)NCc2cccc(Cl)c2)c2ccccc2c1=O	inactive: -25.8%
O=C(NCCC1=CCCCC1)c1ccc2c(c1)sc1nc(-c3ccc(F)cc3)cn12	inactive: -18.3%
O=C(NCCc1ccccc1)c1ccc2c(c1)N(Cc1ccc(F)cc1)C(=O)CS2	inactive: -27.7%
CC(NC(=O)c1cc2c(=O)n3ccccc3nc2n(C(C)C)c1=N)c1ccccc1 (stereo unspecified)	inactive: -19.1%
CC(NC(=O)Cn1c(=O)oc2cc(S(=O)(=O)N3CCCCCC3)ccc21)c1ccccc1 (stereo unspecified)	inactive: -16.9%
COC(=O)c1ccccc1NC(=O)c1nc(-c2ccc(C)cc2)n2c1CCCCC2	inactive: -6.59%
COCCNC(=O)Cn1nc(-c2ccccc2)c2ccccc2c1=O	inactive: -7.18%
COc1cc(OC)c(C2CC(=O)Nc3ccc4ccccc4c32)cc1OC (stereo unspecified)	inactive: -12.8%

Compound	activation
Cc1cccc(-c2noc(-c3cc(C(C)C)[nH]n3)n2)c1	inactive: -20.3%
CC(=O)N1c2ccccc2C(=O)C1N1CCN(c2cccc(Cl)c2)CC1 (stereo unspecified)	inactive: -16.6%
Cc1cn(C)c(CC(=O)NCc2ccc(Cl)cc2)c1C(=O)O	inactive: -11%
COc1cccc(Cn2c(=O)n(CC3CCC(C(=O)NC(C)C)CC3)c(=O)c3sccc32)c1 (stereo unspecified)	inactive: -6.52%
Cc1ccc(C2=NN(CC(=O)NCCc3ccccc3)C(=O)CC2)cc1	inactive: -13.4%
Cc1cccc(OC(=O)CSc2nnc(-c3ccc4c(c3)OCO4)o2)c1C	inactive: -5.62%
COc1cc(NC(=O)CN2C(=O)CCc3cc(Br)ccc32)cc(OC)c1OC	inactive: -32.2%
Cc1ccc(CCNS(=O)(=O)c2ccc3c(c2)C(C(C)C)C(=O)N3)cc1 (stereo unspecified)	inactive: -23.7%
CCOc1ccc(C2c3c(-c4cc(C)ccc4O)n[nH]c3C(=O)N2Cc2cccnc2)cc1OCC (stereo unspecified)	inactive: -18.8%
CCNC(=O)[C@@H]1CCCN1C(=O)[C@H](CCCN=C(N)N)NC(=O)[C@H](CC(C)C)NC(=O)CNC(=O)[C@H](Cc1ccc(O)cc1)NC(=O)[C@H](CO)NC(=O)[C@H](Cc1c[nH]c2ccccc12)NC(=O)[C@H](Cc1cnc[nH]1)NC(=O)[C@@H]1CCC(=O)N1 ([pGlu]HWSYGLRP-NHEt)	inactive: -8.64%
COc1ccccc1NC(=O)CC(C)n1nc(C)cc1C (stereo unspecified)	inactive: -19.8%
CC(C)(C)C(=O)NCCc1nc2ccccc2n1CCCCOc1ccccc1	inactive: -13.9%
Cc1ccc(N(CC(=O)N2CCN(c3ccc(F)cc3)CC2)S(=O)(=O)c2c(C)noc2C)cc1	inactive: -0.21%
COc1ccc(-n2nc3c(N4CCC(C(=O)NCc5ccccc5C)CC4)nnc(C)c3c2C)cc1	inactive: -14.2%
CCOC(=O)N1CCC(NC(=O)c2c(C)nn(-c3cccc(C)c3)c2-n2cccc2)CC1	inactive: -14.3%
COc1ccc(OC)c(CCNC(=O)CCCn2c(=O)c3cccn3c3ccc(F)cc32)c1	inactive: -1.94%
COc1ccccc1Nc1ncc2c(n1)CCN(Cc1ccc(C)s1)C2	inactive: -17.4%
Cc1cc(F)ccc1NC(=O)CCS(=O)(=O)c1cc2c(cc1C)NC(=O)CO2	inactive: 5.01%
CCOC(=O)c1ccc(NC(=O)CSc2nc3c(c(=O)[nH]2)CN(Cc2ccccc2)CC3)cc1	inactive: -9.09%
Cc1ccc2c(=O)c(C(=O)c3cccc(Cl)c3)cn(CC(=O)NC3CCCCC3)c2n1	inactive: 3.12%
CCOc1ccccc1CNCCCSc1nnnn1C	inactive: -6.74%
Cc1ccc(CSc2cn(CC(=O)N3CCCCCC3)c3ccccc23)cc1	inactive: -3.52%
COc1cccc(CNC(=O)Cn2ncc3c(=O)oc4ccccc4c32)c1	inactive: -5.6%
O=S(=O)(NCc1ccc(F)cc1)c1ccc(N2CCCCS2(=O)=O)cc1	inactive: -11.3%

From PubChem BioAssay AID1159614 (National Center for Advancing Translational Sciences (NCATS), 2016)
